Hit rate of the full screen: of about 310,000 compounds, about 14,000 (4.5%) showed an effect of 50% or more. The effect is printed as a negative number. The list shows a part of the results.
target: human ether-à-go-go-related gene (hERG) potassium channel (human, UniProt Q12809); test: primary screen, population patch clamp on CHO cells stably expressing hERG
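Also: peak tail current of the secondary pulse compared with the same well before compound.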

Chain of human ether-à-go-go-related gene (hERG) potassium channel (Q12809 whole entry, looked up): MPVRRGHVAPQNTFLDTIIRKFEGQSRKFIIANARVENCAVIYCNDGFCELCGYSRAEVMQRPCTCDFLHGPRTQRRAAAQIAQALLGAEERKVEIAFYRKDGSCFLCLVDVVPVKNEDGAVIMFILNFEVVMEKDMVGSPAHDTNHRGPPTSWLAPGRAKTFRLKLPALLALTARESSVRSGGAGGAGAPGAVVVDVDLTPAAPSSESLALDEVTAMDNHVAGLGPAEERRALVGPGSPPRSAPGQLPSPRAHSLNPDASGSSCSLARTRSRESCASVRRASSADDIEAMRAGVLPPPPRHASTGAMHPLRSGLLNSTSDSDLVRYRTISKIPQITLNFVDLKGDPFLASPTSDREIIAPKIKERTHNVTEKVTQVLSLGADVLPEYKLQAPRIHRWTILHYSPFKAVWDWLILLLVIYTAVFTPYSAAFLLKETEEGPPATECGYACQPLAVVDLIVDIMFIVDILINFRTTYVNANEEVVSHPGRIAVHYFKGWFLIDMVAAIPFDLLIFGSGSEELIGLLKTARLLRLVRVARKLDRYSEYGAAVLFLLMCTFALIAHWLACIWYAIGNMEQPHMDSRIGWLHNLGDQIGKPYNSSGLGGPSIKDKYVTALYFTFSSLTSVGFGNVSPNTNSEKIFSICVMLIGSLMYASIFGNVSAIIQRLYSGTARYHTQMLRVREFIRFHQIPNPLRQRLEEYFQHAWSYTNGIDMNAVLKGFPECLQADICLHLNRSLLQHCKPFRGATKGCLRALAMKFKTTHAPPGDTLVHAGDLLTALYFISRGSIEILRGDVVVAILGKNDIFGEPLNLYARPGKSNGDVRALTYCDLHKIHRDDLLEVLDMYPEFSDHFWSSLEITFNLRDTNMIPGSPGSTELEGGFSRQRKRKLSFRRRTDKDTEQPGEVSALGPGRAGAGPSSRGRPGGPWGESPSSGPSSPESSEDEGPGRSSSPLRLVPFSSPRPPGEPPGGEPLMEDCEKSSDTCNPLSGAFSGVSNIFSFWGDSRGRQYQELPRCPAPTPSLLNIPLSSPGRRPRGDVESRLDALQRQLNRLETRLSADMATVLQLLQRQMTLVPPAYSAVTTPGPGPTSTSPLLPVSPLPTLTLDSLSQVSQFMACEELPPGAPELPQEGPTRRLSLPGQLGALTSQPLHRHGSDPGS

| SMILES | hERG current change (%, negative = inhibition) at 10uM [%] |
| --- | --- |
| CCC(C(=O)Nc1cccnc1)n1c(=O)[nH]c2ccccc2c1=O (centres unmarked) | 10 |
| Cc1cc(NCCCN2CCOCC2)n2nc(C)c(-c3ccc(F)cc3)c2n1 | -31.1 |
| COc1cc(O)c(C(CC(=O)N2CCCC(C)C2)c2ccc3c(c2)OCO3)c(OC)c1 (centres unmarked) | -5.66 |
| CCCC(=O)N(CCN1CCOCC1)c1nc2c(C)cccc2s1.Cl | -7.14 |
| O=C(CC1C(=O)NCCN1Cc1cccc(Oc2ccccc2)c1)NCCn1cccn1 (centres unmarked) | -26.9 |
| COc1ccc(CC(=O)Nc2cccc(C(=O)NN3C(=O)c4ccccc4C3=O)c2C)cc1 | -3.29 |
| O=C(CN1C(=O)C2CC=CCC2C1=O)Nc1ccc(S(=O)(=O)N2CCOCC2)cc1 (centres unmarked) | 10.3 |
| CC(C)NC(=O)C1CCN(C2CCN(Cc3ccc4cccc(F)c4n3)CC2)CC1 | -38.6 |
| CC(=O)c1sc(NC(=O)CCN2C(=O)C3CC=CCC3C2=O)nc1-c1ccccc1 (centres unmarked) | -33.2 |
| COc1cc(NC(=O)CN(c2cc(C)cc(C)c2)S(=O)(=O)c2c(C)noc2C)cc(OC)c1 | -1.8 |
| Cc1ccc(NC2=NCCCCC2)cc1.Cl | 4.84 |
| Cc1ccccc1NS(=O)(=O)c1cc2c(cc1C)N(C)CCO2 | 7.78 |
| CSc1nc2ccccc2n1CC(=O)N1CCCCC1 | 4.48 |
| CCC(NS(=O)(=O)c1ccc2c(c1)NC(=O)C(C)C(=O)N2)c1cccs1 (centres unmarked) | 6.04 |
| CCOc1ccccc1N1CCN(c2ncnc3scc(-c4ccc(OC)cc4)c23)CC1 | 15.9 |
| CCOC(=O)c1c(C)[nH]c(C(=O)OCC(=O)N(C)c2c(N)n(Cc3ccccc3)c(=O)[nH]c2=O)c1C | 4.34 |
| COc1ccccc1NC(=O)CSc1nnc(-c2ccoc2C)n1C | -1.59 |
| Cc1c(C)c(C)c2[nH]c(-c3ccc4c(c3)OCO4)nc2c1C | 16.1 |
| CC(C)c1nnc(NC(=O)c2ccc(N3C(=O)CCC3=O)cc2)s1 | 13.3 |

| SMILES | hERG current change (%, negative = inhibition) at 10uM [%] |
| --- | --- |
| c1ccc(Cc2noc(CN3CCN(CCOc4ccccc4)CC3)n2)cc1 | -40.9 |
| CCCNC(=O)C1CCC(CNS(=O)(=O)c2ccc3c(c2)N(C(C)=O)CCO3)CC1 (centres unmarked) | 15.7 |
| CC(C)CCNC(=O)C1c2ccccc2Oc2ccccc21 | -26.5 |
| O=C(O)C1=C[C@H](c2csc3ccccc23)C[C@H](OCc2ccc(CO)cc2)O1 | 8.95 |
| CCCCC(C(=O)OCC)C(N)Cc1ccc(F)cc1.Cl (centres unmarked) | -2.12 |
| COc1ccc(CNC(=S)NC2CCCC2)cc1 | 12.5 |
| CCn1nc(C)c(/C=N/NC(=O)c2ccc3c(c2)c(C)c(C)n3Cc2ccccc2)c1C | -1.94 |
| COc1cc(CNc2ccc(CNc3ncn[nH]3)cc2)ccc1OCC(=O)NC(C)(C)C | -0.0129 |
| CCc1n[nH]c2c1/C(=N\O)CC(C)(C)C2 | 11.5 |
| CCCCOc1ccccc1NC(=O)C=C(C)C | -1.61 |
| CC(=O)Cc1nsc(NC(=O)c2cn(-c3ccccc3)nc2-c2ccc(Br)cc2)n1 | 2.86 |
| CCOc1ccc(N(C(=O)CNC(=O)c2ccco2)C(C(=O)NCC2CCCO2)c2ccccc2)cc1 (centres unmarked) | 4.03 |
| COc1cc(C(=S)N2CCOCC2)cc(OC)c1OC(=O)Cc1ccc(F)cc1 | -5.55 |
| CCOC(=O)C1(CCCc2ccccc2)CCN(Cc2cnn(C)c2)CC1 | -71.6 |
| Cc1csc(NC(=O)CCNC(=O)c2ccccc2Cl)n1 | 5.34 |
| COC(=O)C1=C(Nc2ccccc2NS(=O)(=O)c2ccc(C(F)(F)F)cc2Cl)CSC1 | 3.57 |
| O=C(NCCc1nnc2ccc(SCC(=O)N3CCCC3)nn12)c1ccc(F)cc1 | 1 |
| CC(=O)Nc1ccc(-c2ccccc2)s1 | 25.4 |
| CN1CCC(CN)(N2CCN(c3ccccc3)CC2)CC1 | 8.38 |

| SMILES | hERG current change (%, negative = inhibition) at 10uM [%] |
| --- | --- |
| O=[N+]([O-])c1ccc2c(c1)nc1n2CCCCC1 | -26.9 |
| O=C(CN1CCCCC1)Nc1ccc(Br)cc1[N+](=O)[O-] | 1.74 |
| COc1cc2cncc(Cc3ccc(Cl)cc3)c2cc1OC.CS(=O)(=O)O | -7.87 |
| O=C(Nc1c(Cl)cccc1Cl)C1CCC1 | 16.3 |
| COc1ccc(NC(=O)COC(=O)COc2cccc3c2OC(C)(C)C3)cc1 | 6.29 |
| CC(C)NCC(O)c1cc(O)cc(O)c1.O=S(=O)(O)O (centres unmarked) | 19.2 |
| O=C(NCc1ccccn1)c1cc2ccccc2oc1=O | 4.95 |
| Cc1ccc(C)c(Oc2coc3cc(OCC(=O)Nc4ccccc4C(C)C)ccc3c2=O)c1 | 3.76 |
| C/C(=N\NC(=O)c1ccccc1F)c1cccc(NC(=O)c2ccccc2)c1 | 18 |
| NC(=O)c1ccsc1NC(=O)COC(=O)c1ccccc1F | 9.9 |
| COc1ccc(N(C(=O)c2ccn[nH]2)C(C(=O)NC2CCCC2)c2ccc(F)cc2)cc1 (centres unmarked) | 3.45 |
| CC(=O)NCCOc1c(C)cc(S(N)(=O)=O)cc1C | 19.5 |
| COc1cc(NC(=S)NCc2ccco2)cc(OC)c1 | 5.06 |
| CN1C2=C(C(=O)CC(C)(C)C2)C(c2cccs2)C2=C1CC(C)(C)CC2=O | -4.74 |
| Cc1ccc(N(Cc2cc(=O)[nH]c3ccccc23)C(=O)C(C)C)c(C)c1 | 1.62 |
| CSCCC(C(=O)N1C[C@]2(C)C[C@H]1CC(C)(C)C2)N1C(=O)c2ccccc2C1=O (some centres unmarked) | -15.1 |
| COC(=O)COc1cccc(NC(=O)c2ccccc2)c1 | 1.84 |
| Cc1ccc(-n2ncc3c(=O)[nH]c(SCC(=O)N4CCN(c5ccccc5)CC4)nc32)cc1 | 3.28 |

— article PMC4336329 (PLoS ONE, 2015)
